{"source": "the supplement of paper PMC3334620", "note": "Whole data set: some 33,000 sequences, median “E-score (-0.5 to 0.5)” near -0.054, cut for the highest 2% near 0.39. This is one part of the list."}
{"target": "Ylr278c (UniProt Q05854)", "assay": "PBM E-score (8-mer binding enrichment) (E-score (-0.5 to 0.5)); higher = stronger / more preferred TF binding; most listed sequences are background and not binding sites", "details": "protein concentration: 200 nM; construct: GST-DNA-binding domain", "summary_of_the_method": "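E-scores (a modified Wilcoxon-Mann-Whitney statistic) were assigned by the Universal PBM Analysis Suite to every ungapped eight-base word pooled with its reverse complement. The input came from universal all-10-mer Agilent arrays made double-stranded by primer extension and probed with GST-tagged yeast transcription factors at about 100-200 nM. Fluorescent anti-GST detected bound protein, and masliner normalised the scans.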"}
{"sequence": "AGGTCCAA", "PBM E-score": -0.179}
{"sequence": "CAGGATAA", "PBM E-score": -0.155}
{"sequence": "AACGGATT", "PBM E-score": 0.276}
{"sequence": "TCAAGGCA", "PBM E-score": -0.265}
{"sequence": "GCAATGGC", "PBM E-score": 0.049}
{"sequence": "CCTCGGAG", "PBM E-score": 0.456}
{"sequence": "AGCCAGAA", "PBM E-score": -0.217}
{"sequence": "AGACAGTC", "PBM E-score": -0.129}
{"sequence": "AACTGAAG", "PBM E-score": -0.106}
{"sequence": "CTCGGGAC", "PBM E-score": 0.272}
{"sequence": "ACTGGGCG", "PBM E-score": 0.0351}
{"sequence": "ACGGTGCA", "PBM E-score": -0.198}
{"sequence": "TACTGTGA", "PBM E-score": -0.0654}
{"sequence": "ACGTTGTA", "PBM E-score": -0.0605}
{"sequence": "GGGACACC", "PBM E-score": -0.0306}
{"sequence": "CAAGTGCC", "PBM E-score": -0.188}
{"sequence": "ACCGATAG", "PBM E-score": 0.124}
{"sequence": "CCGGACCG", "PBM E-score": 0.426}
{"sequence": "TACAAAGA", "PBM E-score": -0.0951}
{"sequence": "AGCAATCC", "PBM E-score": 0.0971}
{"sequence": "GCTTGAAC", "PBM E-score": 0.0541}
{"sequence": "CATCAGAG", "PBM E-score": -0.181}
{"sequence": "CCGGCGGA", "PBM E-score": 0.456}
{"sequence": "ATATCAGA", "PBM E-score": 0.0583}
{"sequence": "TCCTCCGA", "PBM E-score": 0.43}
{"sequence": "GTAGATAA", "PBM E-score": 0.0815}
{"sequence": "CGTGTTTC", "PBM E-score": 0.0625}
{"sequence": "TCGCCGAA", "PBM E-score": 0.327}
{"sequence": "ACACAAGT", "PBM E-score": -0.254}
{"sequence": "TAAGTCCA", "PBM E-score": 0.00247}
{"sequence": "ATTCTCTA", "PBM E-score": -0.0579}
{"sequence": "CCAGATGC", "PBM E-score": -0.112}
{"sequence": "GACGCCCC", "PBM E-score": 0.179}
{"sequence": "CCAAAGAC", "PBM E-score": -0.0458}
{"sequence": "ATAACCAG", "PBM E-score": -0.116}
{"sequence": "ATCGCCAG", "PBM E-score": 0.00501}
{"sequence": "AAGCGTAG", "PBM E-score": -0.123}
{"sequence": "AATGAGAT", "PBM E-score": -0.0336}
{"sequence": "GCTAGACC", "PBM E-score": -0.095}
{"sequence": "GTTACGTA", "PBM E-score": -0.296}
{"sequence": "CATAGAAA", "PBM E-score": 0.00301}
{"sequence": "ATGCAGGA", "PBM E-score": -0.153}
{"sequence": "AGCGATCC", "PBM E-score": 0.119}
{"sequence": "AGCTCCCT", "PBM E-score": -0.204}
{"sequence": "GCTCTGGA", "PBM E-score": -0.1}
{"sequence": "AACGATGT", "PBM E-score": -0.16}
{"sequence": "CAGGCATG", "PBM E-score": -0.0835}
{"sequence": "CAGCGACG", "PBM E-score": -0.0577}
{"sequence": "CGCAAGAC", "PBM E-score": -0.0829}
{"sequence": "GCGGGATA", "PBM E-score": 0.266}
{"sequence": "AGGAGACG", "PBM E-score": -0.12}
{"sequence": "CCACACAG", "PBM E-score": -0.144}
{"sequence": "ATACATAA", "PBM E-score": -0.167}
{"sequence": "GCCATATA", "PBM E-score": -0.0508}
{"sequence": "CCAATTCA", "PBM E-score": -0.278}
{"sequence": "CTTAAGTA", "PBM E-score": -0.106}
{"sequence": "GGTAAATA", "PBM E-score": 0.107}
{"sequence": "ACGGAGGG", "PBM E-score": 0.318}
{"sequence": "CCTGTACA", "PBM E-score": 0.0467}
{"sequence": "AGTTACCA", "PBM E-score": -0.0694}
{"sequence": "AGCATGGC", "PBM E-score": -0.169}
{"sequence": "CATGTGCA", "PBM E-score": -0.146}
{"sequence": "AAGTTATG", "PBM E-score": -0.0742}
{"sequence": "ATCTACGA", "PBM E-score": -0.25}
{"sequence": "ACTGGGAA", "PBM E-score": 0.0902}
{"sequence": "GAAGTATC", "PBM E-score": -0.0367}
{"sequence": "ACGTGAGT", "PBM E-score": -0.183}
{"sequence": "CAACCAGG", "PBM E-score": -0.275}
{"sequence": "ACCTATAT", "PBM E-score": 0.0976}
{"sequence": "TACGACCA", "PBM E-score": -0.288}
{"sequence": "AGAGCACA", "PBM E-score": -0.212}
{"sequence": "AATCGCTC", "PBM E-score": -0.179}
{"sequence": "CCGGTAGA", "PBM E-score": 0.272}
{"sequence": "AGCTCCAG", "PBM E-score": -0.108}
{"sequence": "CCGCGATA", "PBM E-score": 0.232}
{"sequence": "CATTTTAA", "PBM E-score": -0.00071}
{"sequence": "GCACGAGA", "PBM E-score": -0.0575}
{"sequence": "GCCGGTTA", "PBM E-score": 0.19}
{"sequence": "CAATTAGA", "PBM E-score": -0.237}
{"sequence": "CACGTGAC", "PBM E-score": -0.195}
{"sequence": "CCATCGGC", "PBM E-score": 0.282}
{"sequence": "CTCTTCAC", "PBM E-score": -0.154}
{"sequence": "AATAATCA", "PBM E-score": -0.0452}
{"sequence": "GCTTTTGA", "PBM E-score": -0.0305}
{"sequence": "CATCATGG", "PBM E-score": -0.141}
{"sequence": "CCGGTGTC", "PBM E-score": 0.352}
{"sequence": "ACTTGGTG", "PBM E-score": -0.247}
{"sequence": "ACAGCGTG", "PBM E-score": -0.17}
{"sequence": "AGAGAACT", "PBM E-score": -0.124}
{"sequence": "AGCCCGAA", "PBM E-score": 0.297}
{"sequence": "CAAGTCGA", "PBM E-score": -0.278}
{"sequence": "CGCACGAA", "PBM E-score": -0.0815}
{"sequence": "GACTTCAA", "PBM E-score": -0.0884}
{"sequence": "GGTTTATA", "PBM E-score": 0.00308}
{"sequence": "GATCGTCA", "PBM E-score": -0.0693}
{"sequence": "AAGAGCAG", "PBM E-score": -0.228}
{"sequence": "ACTCGGAT", "PBM E-score": 0.251}
{"sequence": "AAGCTATG", "PBM E-score": -0.249}
{"sequence": "TCGCTCCA", "PBM E-score": -0.139}
{"sequence": "GCACAACA", "PBM E-score": -0.0315}
{"sequence": "ACCACTGC", "PBM E-score": -0.184}
{"sequence": "AGGACGCA", "PBM E-score": -0.0283}
{"sequence": "CCCCGCGG", "PBM E-score": 0.328}
{"sequence": "GGTCGCTA", "PBM E-score": -0.0221}
{"sequence": "CATCAGCC", "PBM E-score": -0.176}
{"sequence": "GATCAAGA", "PBM E-score": 0.127}
{"sequence": "AACGCGGG", "PBM E-score": 0.301}
{"sequence": "AATGAAAC", "PBM E-score": -0.047}
{"sequence": "CACCGAGG", "PBM E-score": 0.142}
{"sequence": "AAACTCGG", "PBM E-score": 0.343}
